This is one part of the list. At the low end of the ranking, values are background and their order means little. The protein was read in a cell extract, so binding may be indirect.

This assay deals with T1, HNF4alpha2 (COS-7 nuclear extract) (UniProt P41235).
T1 sequence: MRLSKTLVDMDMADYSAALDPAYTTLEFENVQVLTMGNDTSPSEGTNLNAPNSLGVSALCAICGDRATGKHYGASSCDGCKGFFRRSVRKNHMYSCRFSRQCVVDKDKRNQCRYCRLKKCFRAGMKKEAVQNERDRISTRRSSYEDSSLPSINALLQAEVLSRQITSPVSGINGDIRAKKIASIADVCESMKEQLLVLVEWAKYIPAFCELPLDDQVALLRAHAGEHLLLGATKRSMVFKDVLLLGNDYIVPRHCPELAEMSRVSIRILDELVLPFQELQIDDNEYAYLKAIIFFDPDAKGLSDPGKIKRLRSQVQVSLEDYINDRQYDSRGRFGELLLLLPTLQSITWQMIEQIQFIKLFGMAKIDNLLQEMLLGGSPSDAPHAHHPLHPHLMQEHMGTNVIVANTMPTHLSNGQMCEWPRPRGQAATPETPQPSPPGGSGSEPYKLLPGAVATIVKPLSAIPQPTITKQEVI
The assay can be described thus: protein-binding microarray. To be noted: COS-7 nuclear extract on double-stranded Agilent 4x180k PBM; binding buffer, salt, pH and temperature not given; high values mean tight binding; double strand, one strand shown; sequences stand for … in …GCCTAGGGAGATTAGAGTATCGGTCGA
For ACGGTGGGCACCTCATACTATACCTGATAG, the binding signal (log2 normalized intensity) was -1.04.
Take GGATCAAAGGAGCTGGGCCTGTGCTGGGGA: the binding signal (log2 normalized intensity) was -1.09.
Regarding CTGAGCCCTTATCTTTTTAGCAACTGGTAT, the binding signal (log2 normalized intensity) stood at 1.73.
For the sequence AAAGAAGAAGTGAAAAGTCGTTTTCAGTGT, the binding signal (log2 normalized intensity) is 1.19.
For CAGTCCTCTGCTTATCTGGCCTGCTGGGAA, the binding signal (log2 normalized intensity) turned out to be 0.246.
In the case of CCTTTGGCATTGTGTTACGTCTGGTTTCTT it was 1.95; in that of TTACGTAAGTGAAAGTACACAGTGCCTGCT, -1.17; in that of TATCATCCCTATCACTCAAGAAATGGCAGT, 0.313.
Regarding CTTACCCCTTTGCTGATTACCTCAACTCCC, the binding signal (log2 normalized intensity) is 1.23.
As for AGTTATCTAAGACCCATCCCTCAGGGTCCA, the binding signal (log2 normalized intensity) is 3.12.
For the sequence ACAGAGAGGCTTCTGGCCAGGCAGAGCAGG, the binding signal (log2 normalized intensity) was -1.16.
For AAAGGCCTTTGAAGCTTGAAGGAGTATATG, the binding signal (log2 normalized intensity) turned out to be 1.06.
In the case of GCTGCGGATCAAAGGAGCTGGGCCTGTGCT, the binding signal (log2 normalized intensity) is -1.15.
With GTCTCTTCCTCAGTTTGTTCTTGGGGCCCA, the binding signal (log2 normalized intensity) came out at 1.55.
The result for ACGGAGCTGCCTCACATGAGCTAGAGCTCG reads -1.16; that for GACAGTGAGACGCAAGCATATCTCTAGATC, -1.15; that for ACATGTCAAAGGTCAAAGGGCATAGCCTCA, 5.53.
The result for GGACTCTGCCCTTAGCAGTGGGAGACAGGC reads 2.51.
On to CTGTGTCAAAAATCAGGGACAAAGTCCAAA, for which the binding signal (log2 normalized intensity) turned out to be 6.06.
Take AGTCTCTAGCCCCGCCCAGATGTCTGGCTA: the binding signal (log2 normalized intensity) amounted to 2.39.
The result for CTAACCTTTGAACCAGATGGCCCTCTCCAA reads 2.52.
The result for CAGAAGCTGAGCTCCCCCAGTGAGCAATTC reads 2.64; that for AAGTTTGTTTCTTATCACACAGTCAACATG, 1.02.
On to TTTGGTGAAACTCCACTACATTAGCAGCGC, for which the binding signal (log2 normalized intensity) was -0.823.
In the case of TGAGTCACTTGGTTTTCACAACCTCCCTTT it was 1.98; in that of GCTCTGCGCAGGCGCAGTCCTCTCTCGCGA, -1.19; in that of GGTTACACAGTATGTTAATGGCAGAATCAA, 1.
In the case of GAAAAGGCAGCAGCTTGGAATGTCAGGAAC it was -1.11; in that of AAGATTTCAGTAGCAAACCAATTCGCATAG, -1.04; in that of GCCTCCTGGCTGGGCAGGCTCCCTCCCTGG, -1.07.
The result for AAAATATCTGATCGATATCCTAACCATGCC reads -1.09; that for CAGAGATTGGGACTATCAAATGTGGTGGGT, 1.01; that for CGTACTTTTCATCTGATCAGTGCCCATCTG, 1.51.
Regarding TATTATCTTTTTAATCAATAATCTTTGCCC, the binding signal (log2 normalized intensity) turned out to be 2.85.
As for CTGACCTCTGCCTCGGCCACATTCCCCGAC, the binding signal (log2 normalized intensity) was 0.998.
The result for CCCCTGGCAACACCCCAGTGTGTTGCATGC reads 2.01.
The result for CAGCAATAGGTCAGAGGACACCCGGGGTGG reads -1.
In the case of TGGTCAGTGCATAGCTAAGCACCCAGATAA it was -1.02; in that of TTGAGACCTAGAGGAGAGAGTAAATAATTG, -1.11.
With TCCTGCCTAACCACCTGACCACAACACACA, the binding signal (log2 normalized intensity) was -1.12.
In the case of CCACCTACTGACCAAATGGGAACATTCCTC it was -1.14.
In the case of ATAGAGAAGCCAGGGGTAAGTTTCTAACTA, the binding signal (log2 normalized intensity) was -1.08.
In the case of TCTGATAAGGAAGATAATGGGTCCGAAGGT it was 1.85; in that of TGGTCCTGCTCAAAGGGGAAAGAGGGGGAA, -1.12.
In the case of CATCACAATAGGGAAACAGCGAGAGTCCTC it was -0.957.
In the case of AGGAGGAGATAAGATCAGTATAGTTAGGGC it was 0.153; in that of ACAGGTTCCCTCATGATTTAGTAAGTTCAA, 1.37.
On to CAGGGTCCAAAGGTGTCAAGAACATAGCCC, for which the binding signal (log2 normalized intensity) amounted to 2.58.
On to GGTAGATGGGGCCAGATTGAGAAACACATT, for which the binding signal (log2 normalized intensity) is -0.67.
For TGGGCAGGAGGGATCTGGCAGGGGCGCGGC, the binding signal (log2 normalized intensity) is -1.17.
In the case of ATCCTGTCAGACCAAGGCTGCTTAACAAAC it was -1.15; in that of AATGCGCAGAATTTCTTTTAATGTGTGCTT, 0.506; in that of TTCCTCTTCATATCAGTAAACCCCAATCAG, 3.84.
In the case of CTTGGAGACAGTCACTCCCACCCTTCCTGT it was 1.9; in that of GCCAAGCAGGAGGTCAGAAACAGAAAGTCC, -0.898.
In the case of TGCCAGCCCCGAGATAACCCCTCTCCAAGC, the binding signal (log2 normalized intensity) is 4.59.
In the case of TTCTTTACCATGTGTTGGCACTTTGGACTT it was 6.31; in that of CAGTAGGTCAGTGTCCCTCTTATACTCTCT, 0.517; in that of ATGGGAAGCTTCACAAAGGGCTGAGGTTAA, -1.15.
In the case of CTCATCCTGTGACCAAGAATGCCTAACCTC, the binding signal (log2 normalized intensity) is -1.06.
In the case of GCGCGCTGGGAAGGCTCGTTCTCGCGAGAG, the binding signal (log2 normalized intensity) is -1.09.
Take TCTGTACGGAAGGCCGGGCCTCAAGGGAAT: the binding signal (log2 normalized intensity) was -1.24.
Take ATTAAGCTGAGGCAGAGTTGTTTGCAGAGG: the binding signal (log2 normalized intensity) worked out at 1.04.
With CATTGCAAAATCCATCTAAATGGCAATGGC, the binding signal (log2 normalized intensity) is -0.84.
As to GAAAAGAGGAAAACCAGCTCAGTGGAAATT, the binding signal (log2 normalized intensity) is -1.12.
In the case of GTGGCCATCTTCACGCAATACTAGCAATAA it was -1.05; in that of TTTTTCATGCAAATTTCCGTGTCGAAACTA, -1.03.
The result for AAGGGACAAAACTTCAAAGCCCCTGAGGCC reads -1.06; that for AAATCACAGATAAACCCCTGGAGCACAGAA, -0.969; that for TTATTTGCGCCTCCCTAGAGCAGCAGTAGG, -1.04.
In the case of GCCAGATGAAGCTGCAGCCTTAAGAGAGTT it was -1.09.
In the case of TTAAGCAGCAGATAAGGCTAATCCTTACAC, the binding signal (log2 normalized intensity) is -1.05.
